Experimental findings from ChEMBL document CHEMBL4888484, “Replenishing the malaria drug discovery pipeline: Screening and hit evaluation of the MMV Hit Generation Library 1 (HGL1) against asexual blood stage Plasmodium falciparum ,using a nano luciferase reporter read-out” (2022) are described below.

Out of some 150,000 compounds screened, about 540 (0.36%) showed an effect of 50% or more. Some of the results follow.

This experiment deals with Plasmodium falciparum. Put plainly: Primary screen in NF54 nanoGlo assay, in single point, at 2uM, 72h; a lower Z score goes with more inhibition. In kind it is functional, Erythrocyte. Particulars: timepoint 72 hour.
Broadly, the % Inhibition is the change of the read-out against control, counted positive when it falls. Turning to `CC(C(C)S(C)(=O)=O)N(C)CC(=O)N(C)Cc1ccco1` (configuration not stated), the “% Inhibition” value is on record as -11% and the Z score amounted to 1.48.
Taken in the same sequence, the figures for `CC(C)[C@@H]1CN(CCc2nnn[nH]2)CCCN1Cc1ccc(F)cc1` were -17% and 1.55.
Taken in the same sequence, the figures for `CC(C)(C)n1nnnc1[C@@H]1CC2(CCOCC2)C(=O)N1CCc1nc2ccccc2[nH]1` were -8% and 0.93.
Taken in the same sequence, the figures for `CCC[C@H](NC)C(=O)NCc1cc2c(nc1OC)CN(C1CCCC1)C2=O` were -10% and 1.36.
Consider `COc1c2ccc(C(=O)N3CC(S(=O)(=O)Cc4ccco4)C3)cc2nn1C`, for which the “% Inhibition” value was determined as 5% and the Z score was -0.7.
For `CCOc1ccc([C@@H]2c3[nH]c4ccccc4c3CCN2Cc2nccn2CC)cc1` the same measures were -7% and 0.77.
Taken in the same sequence, the figures for `Cc1cc(Cc2ccc(S(=O)(=O)N3CCN(c4cccc(Cl)c4)CC3)cc2)c(=O)[nH]n1` were -20% and 2.
As to `O=C(Nc1ccccc1)C(=O)N1CC[C@@]2(CCCN(CC3CCC3)C2=O)C1`, the “% Inhibition” value is reported as -13% and the Z score was 1.41.
Turning to `O=C(CCCc1ccccc1)N1CCC(n2ccnn2)CC1`, the “% Inhibition” value is on record as -5% and the Z score was found to be 0.59.
Taken in the same sequence, the figures for `CCCS(=O)(=O)N[C@H]1CCN(Cc2ccc(OCC)nc2)C1` were 2% and -0.3.
Turning to `Cc1n[nH]c(C)c1CCCN[C@@H](C)C(=O)NC1CCCC1`, the “% Inhibition” value was -12% and the Z score was found to be 1.54.
As for `CNC(=O)CCN(C)Cc1ccc(C2CCCC2)s1`, the “% Inhibition” value is given as -3% and the Z score turned out to be 0.47.
For `Cc1cc(CC(=O)N[C@@H](C)c2nc(CC(C)C)no2)on1` the same measures were -8% and 1.51.
For the molecule `CCN(CC(=O)Nc1ccc(NC(C)=O)cc1)S(=O)(=O)[C@@H](C)C(F)(F)F`, the “% Inhibition” value is -9% and the Z score worked out at 1.12.
Taken in the same sequence, the figures for `CC(C)n1cc(NC(=O)Cn2cc(-c3nccc(C(F)(F)F)n3)cn2)nn1` were -10% and 1.48.
For `CC1CN(S(=O)(=O)c2ccc3c(c2)CCO3)C(C)CO1` (configuration not stated) the same measures were -2% and 0.4.
For the molecule `COc1cc(-c2nc(COc3ccc(C(N)=O)cc3)c(C)o2)cc2c1OCO2`, the “% Inhibition” value was 8% and the Z score was -1.08.
Regarding `Cc1c(C(=O)N2CCN(C)C3(CCN(C)CC3)C2)nnn1Cc1ccccc1`, the “% Inhibition” value was -13% and the Z score stood at 1.3.
Take `Cc1cc(O)cc(=O)n1CCc1c[nH]c2ccc(O)cc12`: the “% Inhibition” value is -3% and the Z score is 0.33.
Taken in the same sequence, the figures for `Cc1nc(N2CCCC2)c2c(C(=O)NCc3ccc4c(c3)OCO4)c(C)oc2n1` were 4% and -0.62.
Taken in the same sequence, the figures for `CCc1noc([C@H](C)NS(=O)(=O)c2cnn(CC)c2)n1` were -15% and 1.47.
As to `CCCNC(=O)[C@H](C)NC(=O)c1cc(F)cc(F)c1`, the “% Inhibition” value is -44% and the Z score is reported as 5.11.
For `O=C(COc1ccccc1)N1CCc2n[nH]c(=O)cc2C1` the same measures were 2% and -0.26.
For `c1cncc(COc2cccc(-c3noc(Cc4ccn[nH]4)n3)c2)c1` the same measures were -5% and 0.96.
For `Cn1cc(CN[C@@H]2C[C@H](Cn3cc(C4CC4)nn3)[C@@H](O)[C@H]2O)c2ccccc21` the same measures were 26% and -2.92.
`CN1C[C@@H]2CCCN3CCC[C@@H]([C@H]23)[C@H]1CCCC(=O)NCc1ccccc1`: the “% Inhibition” value is listed as -2% and the Z score amounted to 0.34.
Take `Cc1occc1CN(C)C(=O)[C@H]1CCO[C@@H]1c1cccnc1`: the “% Inhibition” value came to 4% and the Z score is reported as -0.68.
As for `CCC(=O)Nc1cc(-c2ccccc2)nn(CC(=O)N2CCc3ccccc32)c1=O`, the “% Inhibition” value is recorded as 2% and the Z score is listed as -0.33.
For `CN1CCCC[C@@H]1CCC(=O)NCCc1nc(-c2ccccc2)no1` the same measures were -19% and 2.02.
For the molecule `Cc1ccc(OCC(=O)Nc2sc3c(c2C#N)CCCC3)c(-n2cnnc2)c1`, the “% Inhibition” value is on record as -5% and the Z score turned out to be 0.64.
For `CNC(=O)NC1CN(C(=O)C2(c3c(F)cccc3F)CCC2)C1` the same measures were -1% and 0.17.
Taken in the same sequence, the figures for `CCOC(=O)[C@H]1CCCN(C(=O)c2nc(CCc3ccccc3)n(-c3ccccc3)n2)C1` were -2% and 0.45.
Taken in the same sequence, the figures for `CC(=O)Nc1ccc(S(=O)(=O)NC(C)(C)C(C)(F)F)c(F)c1` were -5% and 0.96.
For `COc1ccc(C)cc1[C@@H](C)OC(=O)c1ccc2nncn2c1`, the “% Inhibition” value amounted to 2% and the Z score is -0.37.
For `CCOc1ccc(NC(=O)N2CCC([C@@H]3CCCO3)CC2)cn1`, the “% Inhibition” value was -15% and the Z score worked out at 1.5.
Taken in the same sequence, the figures for `Cc1cc2c(cc1CN1CC[C@H](CNC(=O)C3CCC3)C1)OCO2` were -10% and 1.04.
For the molecule `CN(C)C(=O)[C@H]1C[C@H]1C(=O)Nc1ccc(Cl)c(Cl)c1`, the “% Inhibition” value was -5% and the Z score is 0.72.
Taken in the same sequence, the figures for `CC(C)Cn1ncc2[nH]c(CC(C)(C)C)nc21` were 3% and -0.39.
For `CCN1CC(C(=O)NC2CCc3nccn3C2)CC1=O` (configuration not stated) the same measures were 2% and -0.36.
For `C=CCN(C(C)=O)c1nc(-c2c[nH]c3ccccc23)cs1` the same measures were -3% and 0.47.
For the molecule `Clc1ccc([C@@H]2CN(c3noc(C4CC4)n3)CCO2)cc1`, the “% Inhibition” value is listed as -10% and the Z score was 1.41.
